# Data as given in PubChem BioAssay AID588855 (National Center for Advancing Translational Sciences (NCATS), 2011).
# The whole screen tested about 410,000 compounds, of which about 5,000 (1.2%) were called active. Inconclusive results, whose numbers are uncertain, are shown with a selection of clear calls. Calls come from the whole dose curve; as a rule, active = well fitted inhibition curve with a large enough effect; inconclusive = small, poorly fitted or top-dose-only effect; inactive = no such curve, though single readings can be large or run the other way. A potency beside an inconclusive call is a rough fit, not a confirmed value.
# Test: qHTS for Inhibitors of TGF-b; note: nearly all actives have a fitted effect of over 65% in size
# Settings: HepG2 CAGA-GFP TGF-b/SMAD3 reporter, GFP fluorescence, 18 h, TGF-beta stimulated, 500 pg/mL final; series mostly up to 46.1 µM
# Summary of the method: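 Inhibition was scored as loss of TGF-beta-induced (500 pg/mL final, 18 hours, 37 degrees C) GFP in HEPG2 cells carrying a CAGA-GFP reporter, in DMEM with 1% FBS. Well GFP was summed per cell; Activity was normalised to unstimulated and stimulated DMSO wells, then concentration-response fitting.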
# Potency is the fitted concentration of half-maximal effect; tags give direction and shape of the fitted curve.
row,Structure (SMILES),Potency
1,CCOC(=O)N1CCc2c(sc3c2c(=O)n(CCc2ccccc2)c(=O)n3CC(=O)Nc2ccc(C)cc2)C1,inactive
2,CCCc1ccc2oc(C(=O)N(C)Cc3nccs3)c(C)c2c1,"inconclusive: 6.31 µM [inhibitor, partial curve, poor fit]"
3,O=C(Cc1c(F)cccc1Cl)NNC(=O)c1ccccc1Cl,inactive
4,CC(C)(C)CC(=O)NCC(c1ccc2c(c1)OCO2)N1CCN(c2ccccc2)CC1 (stereo not given),inactive
5,NC(=O)SCC(=O)Nc1ccccc1C(=O)O,inactive
6,Cc1ccc(S(=O)(=O)CNC(=S)c2cccc(Cl)c2)cc1,"inconclusive: 10 µM [inhibitor, partial curve, poor fit]"
7,CN(c1ccccc1)S(=O)(=O)c1cccc(NC(=O)C2CC(=O)N(Cc3ccccc3)C2)c1 (stereo not given),"inconclusive: 35.5 µM [inhibitor, single point]"
8,O=C(NCc1cccc(Br)c1)c1cnn(-c2ccc(F)cc2)c1-n1cccc1,"inconclusive: 20 µM [inhibitor, single point]"
9,CCC(C)NC(=O)Cn1c(=O)n(CCCCCC(=O)NCc2ccccc2Cl)c(=O)c2sccc21 (stereo not given),inactive
10,CC(=O)c1ccc(NC(=O)c2cc(-c3ccc(C)s3)nc3ccccc23)cc1,"inconclusive: 0.891 µM [inhibitor, full curve, poor fit]"
11,COC(=O)c1ccccc1NC(=O)CSc1nncn1-c1cccnc1,inactive
12,CC(=O)N/C(=C/c1ccccc1)c1ccncc1,inactive
13,CCN(CC1COc2ccccc2O1)S(=O)(=O)c1ccc(C)cc1 (stereo not given),"inconclusive: 35.5 µM [inhibitor, single point]"
14,COc1cccc(CN(CCC(C)C)S(=O)(=O)c2cc(Br)ccc2Br)c1,"inconclusive: 7.94 µM [inhibitor, partial curve]"
15,CN(Cc1cccnc1)C(=O)c1cc(S(=O)(=O)Nc2ccccc2F)ccc1Cl,inactive
16,Cc1ccc(-c2csc(NC(=O)C3CC(=O)N(c4ccc5c(c4)OCCO5)C3)n2)o1 (stereo not given),"inconclusive: 17.8 µM [inhibitor, single point]"
17,CNC(=O)C1CCC(Cn2c(=O)c3sccc3n(CC(=O)Nc3ccc(C)c(C)c3)c2=O)CC1 (stereo not given),"inconclusive: 35.5 µM [inhibitor, single point]"
18,O=C(NCCN1CCOCC1)c1cc(Sc2cccc(Cl)c2)nc2ccccc12,inactive
19,COc1ccc(-c2nnc(SCC(=O)N(Cc3ccccc3)C(C)(C)C)o2)cc1OC,"inconclusive: 3.55 µM [inhibitor, single point]"
20,COC(=O)[C@@]12CCCCN1[C@H](c1ccc(-c3ccc(F)cc3)cc1)[C@@H]1C(=O)N(C)C(=O)[C@@H]12,"inconclusive: 11.2 µM [inhibitor, partial curve]"
21,CC(=O)N1CCN(c2ccc(NC(=O)c3ccccc3C)cc2)CC1,inactive
22,Cc1cccc(C(C)C)c1NC(=O)C1CCCN1S(=O)(=O)c1cccc2nsnc12 (stereo not given),"inconclusive: 22.4 µM [inhibitor, partial curve, poor fit]"
23,OC(CN=c1sc2ccccc2n1CC(O)COc1ccccc1)COc1ccccc1 (stereo not given),"inconclusive: 35.5 µM [inhibitor, single point]"

row,Structure (SMILES),Potency
1,COCCNC(=O)CSc1nc(-c2cc(OC)c(OC)c(OC)c2)[nH]c1-c1ccc(Cl)cc1,"inconclusive: 35.5 µM [inhibitor, partial curve, poor fit]"
2,O=C(CCC(=O)c1ccc(Cl)cc1)OCn1nnc2ccccc2c1=O,inactive
3,Cc1ccc(NC(=O)CN2C(=O)/C(=C\c3cccs3)SC2=S)cc1,"inconclusive: 2.51 µM [inhibitor, single point]"
4,Cc1c(C(c2ccccc2)c2c(C)n(C)n(-c3ccccc3)c2=O)c(=O)n(-c2ccccc2)n1C,inactive
5,CC1CCCCN1C(=O)c1ccccc1OC1CCN(S(C)(=O)=O)CC1 (stereo not given),inactive
6,O=C(Nc1ncccn1)c1cc([N+](=O)[O-])cc([N+](=O)[O-])c1,inactive
7,CCC1CN(C(=O)N2CCC(C(=O)NCCc3ccccc3Cl)CC2)c2cc(C)ccc2O1 (stereo not given),active: 11.2 µM
8,COCCNC(=O)C1(C)CCCN(Cc2ccc(OCc3ccccc3)cc2)C1 (stereo not given),"inconclusive: 35.5 µM [inhibitor, single point]"
9,CCCC(O)c1nc2ccccc2n1Cc1ccccc1OC (stereo not given),"inconclusive: 15.8 µM [inhibitor, single point]"
10,COc1ccc(S(=O)(=O)N2CCCCC2)cc1NS(=O)(=O)c1cc(Cl)ccc1Cl,"inconclusive: 35.5 µM [inhibitor, single point]"
11,COc1ccc(C(=O)CCN2CCN(c3ccccc3OC)CC2)cc1,"inconclusive: 35.5 µM [inhibitor, single point]"
12,CC1=CC(=C2C(=O)c3ccccc3C2=O)C=C(C)N1C,inactive
13,CS(=O)(=O)c1ccc(C(=O)Nc2ccc(S(=O)(=O)N3CCCCC3)cc2)cc1,"inconclusive: 3.98 µM [inhibitor, partial curve, poor fit]"
14,Cc1cccc(Nc2nnc(SCC(=O)c3ccc(Br)s3)s2)c1C,"inconclusive: 22.4 µM [inhibitor, single point]"
15,CCN1C(=NCc2cc(OC)c(OC)c(OC)c2)N[C@@H](c2ccccc2)C(C(=O)OC)=C1C,inactive
16,CN1/C(=C/C(=S)NC(=O)C2(C)CC2(Cl)Cl)C(C)(C)c2ccccc21 (stereo not given),inactive
17,CN(Cc1ccc(Cl)cc1)C(=O)c1ccccc1SCC(=O)N1CCCC1,inactive
18,O=C1/C(=C\c2ccc(O)c(O)c2)C(c2ccccc2)=NN1c1ccccc1,"inconclusive: 7.94 µM [inhibitor, partial curve]"
19,Cc1cc(C)cc(OCC(=O)OC(C)C(=O)Nc2ccc(Cl)cn2)c1 (stereo not given),"inconclusive: 0.501 µM [inhibitor, partial curve, poor fit]"
20,Cn1cc(/C=N/n2cnc3scc(-c4ccc(Cl)cc4)c3c2=O)c2ccccc21,inactive
21,CCOc1ccccc1Nc1sc(C(=O)c2ccccc2)c(N)c1C(=O)Nc1ccccc1,"inconclusive: 14.1 µM [inhibitor, single point]"
22,COc1ccc(Nc2cccc3ccccc23)cc1,"inconclusive: 35.5 µM [inhibitor, single point]"
